Data reported in PubChem BioAssay AID1508642 (National Center for Advancing Translational Sciences (NCATS), 2021).
The whole screen tested about 43,000 compounds, of which about 200 (0.47%) were called active. Inconclusive results (about 12%) are left out. Calls follow the shape of the dose curve; as a rule, active = well fitted cell-killing curve with a large enough effect; inconclusive = small, poorly fitted or top-dose-only effect, or effect the other way; inactive = flat fitted curve, though single readings scatter. Some of the results follow.

experiment: Cell viability qHTS assay in S16 Pmp22-F2sN cells; details: S16 Pmp22-F2sN Schwann cells viability, CellTiter-Glo, 24 h; series mostly up to 57.5 µM; activity change, negative = cytotoxicity: at the top concentration; also: nearly all actives have a fitted effect of over 65% in size
How it was run: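 Viability was measured by CellTiter-Glo luminescence (15 min, room temperature). This followed 24 h at 37 °C of compound exposure (23 nL pin transfer) in S16 Pmp22-F2sN Schwann cells, 500-1,000 per well.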
% is scaled to controls: 0 for no effect and ±100 for the full control effect.

| SMILES | activity change, negative = cytotoxicity |
| --- | --- |
| Cc1oc2ccc(NS(=O)(=O)c3ccc(F)cc3)cc2c1C(=O)O | inactive: 14% |
| COc1ccc(CCNC(=O)C(=O)Nc2ccc(C)c(C)c2)cc1 | inactive: 16.7% |
| CC1CCN(S(=O)(=O)c2cc(C(=O)NCc3ccc(N(C)C)cc3)n(C)c2)CC1 | inactive: 5.03% |
| O=C(CN1C(=O)CC(c2ccco2)Sc2ccccc21)Nc1cccc(C(F)(F)F)c1 (stereo not given) | inactive: -12.7% |
| O=C(CSc1nc2c(c(=O)[nH]1)CCCC2)Nc1ccccc1C(F)(F)F | inactive: 2.14% |
| CC(C)c1ccc(S(=O)(=O)c2cn(CC(=O)Nc3ccc(F)cc3)c3ccccc3c2=O)cc1 | inactive: 3.76% |
| CC(=O)Nc1ccc(S(=O)(=O)NC2=NCN(C(C)C)CN2)cc1 | inactive: -5.43% |
| COc1ccc(C(=O)N2CC(=O)Nc3ccc(C)cc3C2c2ccc(F)cc2)c(OC)c1 (stereo not given) | inactive: -0.0822% |
| Cc1cc(F)ccc1NC(=O)C(C(C)C)N1Cc2ccccc2C1=O (stereo not given) | inactive: 0.0389% |
| COc1ccccc1NC(=O)c1nnn(-c2ccc(F)cc2)c1C | inactive: 12% |
| COc1ccc(CNC(=O)c2ccc3c(c2)N(Cc2ccccc2)C(=O)c2ccccc2S3=O)cc1 (stereo not given) | inactive: 3.57% |
| CCC(=O)N1CCc2cc(Br)cc(S(=O)(=O)CCC(=O)NCCc3ccc(C)cc3)c21 | inactive: 15.2% |
| CN(CC(=O)NCc1ccccc1Cl)S(=O)(=O)c1ccc2c(c1)c(=O)n(C)c(=O)n2C | inactive: 9% |
| Cc1ccc(Cl)cc1N1CCN(C(=O)Cc2c(C(=O)O)c(C)cn2C)CC1 | inactive: 1% |
| Cc1sc2ncn(CC(=O)N3CCN(c4ccccc4F)CC3)c(=O)c2c1S(=O)(=O)N1CCN(c2ncccn2)CC1 | inactive: 3% |
| O=c1c(-c2cc(-c3ccc(Cl)cc3)nc3c2COc2ccccc2-3)coc2ccccc12 | inactive: 21.6% |
| COC(=O)c1ccc(NC(=O)CCn2cccn2)cc1 | inactive: -2.46% |
| c1ccc(CSc2nnc(C3CCNCC3)o2)cc1 | inactive: 2.21% |
| CCOc1ccc(-c2cc3c(=O)n(Cc4nc(-c5ccc(OC)cc5OC)oc4C)ccn3n2)cc1Cl | inactive: -0.0038% |
| COc1cccc(Oc2nc3c(c(=O)n(Cc4ccccc4Cl)c(=O)n3C)n2C)c1 | inactive: -16% |

| SMILES | activity change, negative = cytotoxicity |
| --- | --- |
| O=c1[nH]c2ccc(NCc3ccc(-c4ccccc4F)o3)cc2[nH]1 | inactive: -14.7% |
| Cc1ccc(C(C)C)c(OCC(=O)Nc2cccc(-c3nc4ncccc4o3)c2)c1 | inactive: -4.33% |
| Cc1ccc2oc(=O)c3cnn(CC(=O)N4CCN(c5cccc(C(F)(F)F)c5)CC4)c3c2c1 | inactive: 11% |
| CCC(C)NC(=O)CSc1nc2c(sc3ccccc32)c(=O)n1CCc1ccccc1 (stereo not given) | inactive: -13.2% |
| O=S(=O)(c1cccc(C(F)(F)F)c1)N1CCC(Oc2ccc(-n3cnnn3)cc2)CC1 | inactive: -2.4% |
| CCN(CC)S(=O)(=O)c1ccc2c(c1)N(CC(=O)NCc1ccc(F)cc1)C(=O)CO2 | inactive: 10% |
| Cc1cc(N2CCN(c3cccc(C(F)(F)F)c3)CC2)n2nc(-c3ccccc3C)nc2n1 | inactive: 1.76% |
| CN(C)c1ccc(C2CC(c3c(O)n(C4CCCCC4)c(=O)[nH]c3=O)=Nc3ccccc3S2)cc1 (stereo not given) | inactive: -0.519% |
| COc1ccc(NC(=O)C2=C(C)Nc3c(C(=O)Nc4ccc(C)cc4)cnn3C2c2cc(OC)ccc2OC)cc1 (stereo not given) | inactive: -3.14% |
| COc1cccc(NC(=O)Cn2c(=O)n(Cc3ccccc3)c(=O)c3c2c2cc(C)ccc2n3C)c1 | inactive: -12.4% |
| COc1cc(OC)c(OC)cc1CN1CCc2nc(N3CCN(c4ccccc4F)CC3)ncc2C1 | inactive: -10.3% |
| Cc1ccc2c(C)c(C(=O)N3CCC(c4nc5ccccc5s4)CC3)oc2c1C | inactive: 10.3% |
| O=C(Nc1ccccc1C(F)(F)F)Nc1c[nH]c(=O)[nH]c1=O | inactive: -0.74% |
| COc1ccc(Nc2c(-c3ccco3)nc3cccc(C)n23)cc1 | inactive: 1.72% |
| Cc1ccc(OCC(=O)N(Cc2ccc(Cl)cc2)CC2CCCO2)cc1C (stereo not given) | inactive: 7.83% |
| COc1ccc(C2C=C(c3ccccc3)Nc3nc(NS(=O)(=O)c4ccc(C)cc4)nn32)cc1 (stereo not given) | inactive: 1.09% |
| CN(Cc1ccccc1)C(=O)Cn1c(=O)c2cccn2c2ccc(F)cc21 | inactive: 18.3% |
| CCOC(=O)CNC(=O)CC(c1cc(OC)c(OC)c(OC)c1)N1Cc2ccccc2C1=O (stereo not given) | inactive: 12.6% |
| CCOC(=O)c1ccc(NC(=O)CCn2c(=O)oc3ccccc32)cc1 | inactive: 26.4% |
| CCN(CC)c1ccc(C(=O)Nc2ccc3nc(N(CC)CC)cc(C)c3c2)cc1 | inactive: -1.56% |

| SMILES | activity change, negative = cytotoxicity |
| --- | --- |
| O=S(=O)(NCC(c1ccco1)N1CCOCC1)c1ccc(Cl)cc1 (stereo not given) | inactive: 0.131% |
| Cc1ccccc1NC(=O)C1CCN(S(=O)(=O)c2ccccc2)CC1 | inactive: -5.61% |
| CCc1ccc(NC(=O)C2CCCN(S(=O)(=O)c3cccc4cccnc34)C2)cc1 (stereo not given) | inactive: -24.5% |
| COC(=O)c1ccc(CNC(=O)c2nc(Cn3nc(C)c(Br)c3C)no2)cc1 | inactive: -4.79% |
| COc1cc2c(cc1OC)C(COc1cc(C)cc(C)c1)N(C(=O)c1ccc(S(=O)(=O)N3CCCC3)cc1)CC2 (stereo not given) | inactive: 2.26% |
| O=C(CSc1nc2c([nH]c3ccccc32)c(=O)n1-c1cccc(Cl)c1)NCc1ccccc1 | inactive: -7.57% |
| O=C(CCCCCn1c(=O)[nH]c2ccccc2c1=O)N1CCN(c2ccc(Cl)cc2)CC1 | inactive: 7.8% |
| Cc1ccc(C)c(-c2ccc(=O)n(Cc3ccc(F)cc3Cl)n2)c1 | inactive: -5.92% |
| CCOC(=O)C1CCCN(C(=O)Cn2ncc3c4ccccc4n(Cc4ccc(F)cc4)c3c2=O)C1 (stereo not given) | inactive: -16% |
| O=C(COc1ccccc1)Nc1sc2c(c1C(=O)Nc1ccccc1)CCCCC2 | inactive: 8.9% |
| CCc1nnc(NC(=O)CSc2nc3c([nH]c4ccccc43)c(=O)n2-c2ccc(C)cc2)s1 | inactive: -0.619% |
| CCc1nc2ccc(C(=O)N3CCN(c4cccc(OC)c4)CC3)cc2nc1CC | inactive: -3.22% |
| COc1cc(C(=O)NCc2nnnn2-c2ccc(C)c(C)c2)cc(OC)c1OC | inactive: -1.09% |
| COc1ccc(OCCn2cc(C(=O)c3ccco3)c3ccccc32)cc1 | inactive: -5.73% |
| CCC(=O)N1CCc2cc(S(=O)(=O)NC(Cc3ccccc3)C(=O)NCc3ccc(C)cc3)ccc21 (stereo not given) | inactive: 7.41% |
| CCOc1ccccc1CN1C(=O)c2ccccc2C1C(=O)NC1CCCCCC1 (stereo not given) | inactive: -4.95% |
| COC(=O)c1cc2occc2n1Cc1nc(-c2ccccc2C)oc1C | inactive: 5.01% |
| CC(=O)Nc1ccc(NC(=O)CSc2cn(CC(=O)N(C(C)C)C(C)C)c3ccccc23)cc1 | inactive: 3.02% |
| Cc1ccc(-c2noc(CN(C3CCCCC3)S(=O)(=O)c3ccc(F)cc3)n2)cc1 | inactive: -19.2% |
| Cc1cc2oc(C(=O)NCCc3ccc(S(N)(=O)=O)cc3)cc(=O)c2cc1C | inactive: -3.39% |
